Measured values: PubChem BioAssay AID1347073 (National Center for Advancing Translational Sciences (NCATS), 2019)
About 200 (0.44%) of roughly 45,000 compounds were called active. Another 7% or so got no clear call; they are omitted. Calls follow the shape of the dose curve; as a rule, active = well fitted activation curve with a large enough effect; inconclusive = small, poorly fitted or top-dose-only effect; inactive = no such curve, though single readings can be large or run the other way. The list shows a part of the results.

Test: qHTS of TDP-43 Inhibitors: NCGC Sytravon Library Screen; also: 0% is about no effect; nearly all actives have a fitted effect of over 55% in size
Details: yeast TDP-43 toxicity rescue, BacTiter-Glo growth, 24 h; series mostly up to 46.1 µM; growth rescue (activation): at the top concentration
Summary of the method: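 TDP-43-expressing yeast, pregrown in raffinose, seeded at OD600 0.02 in galactose medium with compound for 24 hr at 30 deg C. Growth read by BacTiter-Glo luminescence, so rescue of toxicity appears as activation.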

Row | Structure (SMILES) | growth rescue (activation)
1 | COc1ccc(/C=C(/NC(=O)c2ccccc2)C(=O)N2CCCC2)cc1OC | inactive: -10.5%
2 | Cc1cccc2sc(NC(=O)[C@H](C)N3C(=O)C4CC=CCC4C3=O)nc12 (some centres not stated) | inactive: 17.4%
3 | CCC(=O)Nc1ccc(Br)cn1 | inactive: -11.7%
4 | O=C(CN(C(=O)CNC(=O)c1cccs1)c1ccc(F)cc1)NC1CCCCC1 | inactive: 10.1%
5 | COCCCN1C(=O)C2C(C(=O)Nc3cc(C)cc(C)c3)C3C=CC2(O3)C1C(=O)NC1CCCCC1 (configuration not stated) | inactive: -7.58%
6 | CC(C)(C)N(Cc1ccccc1)C(=O)CSc1ncn[nH]1 | inactive: -4.33%
7 | CCOC(=O)C1=C(c2ccccc2)Nc2ncnn2C1c1ccc(C(=O)O)cc1 (configuration not stated) | inactive: 22.2%
8 | O=C(CN1C(=O)c2ccccc2S1(=O)=O)Nc1cccc(S(=O)(=O)N2CCOCC2)c1 | inactive: 0.726%
9 | CCOC(=O)C(=O)c1c(-c2ccccc2)nc2ccccn12 | inactive: 0.859%
10 | COc1ccc(C(C(=O)NC(C)(C)C)N(C(=O)CCC(=O)Nc2ccccn2)C2CCCCC2)cc1 (configuration not stated) | inactive: 7.8%
11 | COc1ccc(Cc2nnc(N/N=C/c3ccccc3O)[nH]c2=O)cc1OC | inactive: -7.29%
12 | Cc1ccc(S(=O)(=O)c2nc(Nc3ccccc3C#N)sc2Cl)cc1 | inactive: 4.76%
13 | Cc1cc(C)nc(CCNC(=O)CC2C(=O)NCCN2Cc2ccc(F)cc2Cl)n1 (configuration not stated) | inactive: 10.8%
14 | C=CCN(c1ccccc1OC)S(=O)(=O)c1cccc(C(=O)NCc2ccco2)c1 | inactive: 0.938%
15 | Cc1[nH]c2ccc(C(=O)OC(C)C(=O)N(C)C3CCCCC3)cc2c1C (configuration not stated) | inactive: 13.7%
16 | CCOc1ccccc1C1c2cc3c(cc2OC(C)(N2CCCC2)C1C)OCO3 (configuration not stated) | inactive: -13.9%
17 | CCn1c(SCC(=O)NCCOc2ccccc2)nc2ccccc2c1=O | inactive: 24.5%
18 | COCc1nnc(NC(=O)c2ccc(S(=O)(=O)N(C)Cc3ccccc3)cc2)o1 | inactive: 9.21%
19 | CCC(C)[C@H](NC(=O)[C@@H]1Cc2ccccc2CN1C(=O)OC(C)(C)C)C(=O)NCC1CCC(C(=O)O)CC1 (some centres not stated) | inactive: 28.2%
20 | N#C/C(=C(/O)COc1ccccc1)c1nnc2n1CCCCC2 | inactive: 12.9%
21 | O=C(CN1CCN(Cc2cccc3ccccc23)CC1)NCCc1ccccc1 | inactive: 5.91%
22 | O=C(NC1CCCCC1)C(c1c(F)cccc1Cl)N(C(=O)c1csnn1)C1CC1 (configuration not stated) | inactive: -5.5%
23 | CC(=O)Nc1ccc(S(=O)(=O)N2CCN(CC3CC4C=CC3C4)CC2)cc1 (configuration not stated) | inactive: -11.8%

Row | Structure (SMILES) | growth rescue (activation)
24 | CC1=NNC(=O)C1CCC(=O)N/N=C(\C)c1ccccc1 (configuration not stated) | inactive: -23%
25 | COC(=O)c1cc(NS(=O)(=O)c2ccc(N3CCOCC3)c([N+](=O)[O-])c2)cc(C(=O)OC)c1 | inactive: 14.6%
26 | CC(=O)NC(Cc1ccc(F)c(F)c1)C(=O)NC1CCN(c2c(Cc3ccccc3)c(C)nc3ncnn23)CC1 (configuration not stated) | inactive: 6.51%
27 | COc1ccc(S(=O)(=O)N2CCCC(C(=O)NCc3cccnc3)C2)cc1 (configuration not stated) | inactive: -6.55%
28 | COc1ccc(/C=C/C(=O)NCC(=O)N/N=C(/CCC(=O)O)c2ccccc2)cc1 | inactive: 16.6%
29 | O=C1NC(NS(=O)(=O)c2ccccc2)(C(F)(F)F)C(=O)N1c1cccc(Cl)c1 (configuration not stated) | inactive: -23.1%
30 | C/C(CC(=O)NCc1ccccc1Cl)=N/NC(=O)c1ccccn1 | inactive: -0.816%
31 | COc1ccc(NN=Nc2nc3c([nH]2)c(=O)n(C)c(=O)n3C)cc1 | inactive: 6.26%
32 | Cc1nc(N2CCN(Cc3ccc4c(c3)OCO4)CC2)c2cc(-c3ccccc3)sc2n1 | inactive: 22.3%
33 | CCOC(=O)c1c(NCC(C)C)c2ccccc2[nH]c1=O | inactive: 2.77%
34 | O=C(Nc1ccc2c3c(cccc13)CC2)c1cccc([N+](=O)[O-])c1 | inactive: 15%
35 | O=C(c1cc(COc2cccc(C(F)(F)F)c2)on1)N1CCc2ccccc2C1 | inactive: 8.18%
36 | Cc1ccccc1-n1ncc(C(C)NC(=O)c2ccco2)c1C (configuration not stated) | inactive: 0.656%
37 | CCOc1ccc(CCNC(=O)CSc2nnnn2C)cc1OCC | inactive: -6.54%
38 | COc1cc([N+](=O)[O-])ccc1NC(=S)NCc1ccccn1 | inactive: 21.7%
39 | COC(=O)CNC(=O)CSc1nc2c(sc(=S)n2-c2ccccc2)c(=O)[nH]1 | inactive: 4.22%
40 | C=CCNC(=O)/C=C/c1c(F)cccc1Cl | inactive: 21%
41 | O=C(Nc1cccc(Cl)c1)C1CCCN(C2=NS(=O)(=O)c3ccccc32)C1 (configuration not stated) | inactive: 27.1%
42 | CCCCCCN1CC(=O)N2Cc3[nH]c4ccccc4c3C[C@H]2C1=O | inactive: 9.89%
43 | Cc1ccc(NC(=O)CC2CCCC2)c(Br)c1 | inactive: 23.7%
44 | CCN(CCn1cccn1)C(=O)c1cc(COc2cc(C)ccc2C)on1 | inactive: 3.83%
45 | CC(Oc1cccc(Cl)c1)C(=O)NCc1ccc(S(N)(=O)=O)cc1 (configuration not stated) | inactive: -9.22%
46 | C#CC(CC)(CC)NC(=O)c1nn(-c2ccccc2Cl)c(C)cc1=O | inactive: -1.7%

Row | Structure (SMILES) | growth rescue (activation)
47 | O=C(NC1CCCC1)C(c1ccccn1)N(Cc1ccccc1F)C(=O)c1csnn1 (configuration not stated) | inactive: 9.67%
48 | Oc1ccc(C=NC2CCCCC2)c(O)c1 | inactive: 23%
49 | O=C(CN1CCN(c2ccc(F)cc2)CC1)c1cccs1 | inactive: -11.6%
50 | O=C(OC1Cn2c(=O)ccc(=O)n2C1)c1ccccc1 | inactive: 1.76%
51 | O=C(NCc1ccc(Cl)nc1)c1csc([C@@H]2C[C@H](O)[C@@H](CO)O2)n1 | inactive: -11.8%
52 | O=C(COC(=O)c1cc([N+](=O)[O-])ccc1NCc1ccccc1)NCc1ccccc1Cl | inactive: 21.2%
53 | CC1(C)Cc2nc3oc4c(NCCCN5CCOCC5)ncnc4c3cc2CO1 | inactive: -7.42%
54 | COc1ccccc1NS(=O)(=O)c1cccc(NS(=O)(=O)c2cc(C(=O)O)ccc2OC)c1 | inactive: 20.1%
55 | CCOCCCNC(=S)NCCc1ccccc1 | inactive: 25.7%
56 | OC[C@@H]1CN(Cc2ccncc2)C[C@H](n2cnc3c(NC4CC4)ncnc32)O1 | inactive: 10.9%
57 | CCCc1nnc(SCC(=O)NC2CC2)n1C | inactive: 2.19%
58 | Cc1onc(-c2ccccc2Cl)c1C(=O)N1CCC(C(N)=O)CC1 | inactive: -4.77%
59 | CCN(c1ccccc1)S(=O)(=O)c1ccc(N2CCN(c3ccc(O)cc3)CC2)nc1 | inactive: 17.6%
60 | Cc1ccc(-c2nc(Nc3ccc(O)cc3)c3ccccc3n2)cc1 | inactive: 2.69%
61 | FC(F)(F)c1ccccc1NC(=S)Nc1ccccc1 | inactive: -9.4%
62 | O=S(=O)(NCc1nnc2ccccn12)c1ccc(F)cc1 | inactive: -7.73%
63 | CCN(CC)S(=O)(=O)c1ccc(C)c(NC(=S)NC2CCCCC2)c1 | inactive: -29.4%
64 | CCOC(=O)C(NC(=O)c1ccc(OC)cc1)(N1CCCC1=O)C(F)(F)F (configuration not stated) | inactive: 1.21%
65 | CCC1(C)Cc2ccccc2-c2c1c(=O)n(Cc1ccccc1)c1nnnn21 (configuration not stated) | inactive: -26.7%
66 | Cc1ccc(NC(=S)Nc2cccc(-c3n[nH]c(=S)o3)c2)cc1 | inactive: 16.3%
67 | Cc1cc(NC(=O)Cn2cnc3c2c(=O)n(C)c(=O)n3C)n(-c2ccccc2)n1 | inactive: -17.9%
